# This is one part of the list. Many values rest on one well or one pass, so single values are uncertain.
# Tested on: A2058
# Assay: cell count relative to DMSO control; melanoma cells; higher = more viable cells
# Conditions: library dose: standard library concentration; 72 h
# 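Note: cells treated in 1,536-well plates, then fixed and DAPI-stained, with nuclei counted from automated high-throughput microscope images.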
row,SMILES,cell count
1,"O=C(/C=C/c1cccnc1)NCCCCC1CCN(C(=O)c2ccccc2)CC1 + Cc1cc(SCc2sc(-c3ccc(C(F)(F)F)c(F)c3)nc2C)ccc1OCC(=O)O [GW0742] (first compound 0.05 µM, partner dose 10 µM)",97.6%
2,"Nc1nc(F)nc2c1ncn2[C@@H]1O[C@H](CO)[C@@H](O)[C@@H]1O [fludarabine] + Cc1cc(SCc2sc(-c3ccc(C(F)(F)F)c(F)c3)nc2C)ccc1OCC(=O)O [GW0742] (first compound 1 µM, partner dose 10 µM)",94.2%
3,"CC1(C)CCC(c2ccc(Cl)cc2)=C(CN2CCN(c3ccc(C(=O)NS(=O)(=O)c4ccc(N[C@H](CCN5CCOCC5)CSc5ccccc5)c(S(=O)(=O)C(F)(F)F)c4)cc3)CC2)C1 + O=C(Oc1ccc([N+](=O)[O-])cc1)N1CCC(C(O)(c2ccc3c(c2)OCO3)c2ccc3c(c2)OCO3)CC1 [JZL184] (first compound 2 µM, partner dose 5 µM)",92.1%
4,"Cn1c(=O)n(-c2ccc(C(C)(C)C#N)cc2)c2c3cc(-c4cnc5ccccc5c4)ccc3ncc21 + Cc1cc(SCc2sc(-c3ccc(C(F)(F)F)c(F)c3)nc2C)ccc1OCC(=O)O [GW0742] (first compound 0.02 µM, partner dose 10 µM)",91.8%
5,"NCC(=O)Nc1ccc(-n2nc(C(F)(F)F)cc2-c2ccc3c(ccc4ccccc43)c2)cc1 + Cc1cc(SCc2sc(-c3ccc(C(F)(F)F)c(F)c3)nc2C)ccc1OCC(=O)O [GW0742] (first compound 5 µM, partner dose 10 µM)",86.6%
6,"O=C(Nc1cccc(Cl)c1)Nc1ncc(CCNc2ncnc3ccsc23)s1 + O=C(Oc1ccc([N+](=O)[O-])cc1)N1CCC(C(O)(c2ccc3c(c2)OCO3)c2ccc3c(c2)OCO3)CC1 [JZL184] (first compound 0.004 µM, partner dose 5 µM)",77.5%
7,"CN(C)S(=O)(=O)c1ccc2c(c1)/C(=C/c1cc3c([nH]1)CCCC3)C(=O)N2 + C/C(O)=C(\C#N)C(=O)Nc1cc(Br)ccc1Br [LFM-A13] (first compound 2 µM, partner dose 10 µM)",96.7%
8,"C[C@]1(c2nc3c(C(N)=O)cccc3[nH]2)CCCN1 [Veliparib] + O=C(Oc1ccc([N+](=O)[O-])cc1)N1CCC(C(O)(c2ccc3c(c2)OCO3)c2ccc3c(c2)OCO3)CC1 [JZL184] (first compound 7 µM, partner dose 5 µM)",73.3%

# Tested on: A375
# Assay: as above
# Conditions: library dose: standard library concentration; 72 h
row,SMILES,cell count
1,"O=c1[nH]nc(Sc2ncc([N+](=O)[O-])s2)n1-c1ccc2c(c1)OCCO2 + C/C(O)=C(\C#N)C(=O)Nc1cc(Br)ccc1Br [LFM-A13] (first compound 1 µM, partner dose 10 µM)",86.1%
2,"Cn1cncc1[C@@](N)(c1ccc(Cl)cc1)c1ccc2c(c1)c(-c1cccc(Cl)c1)cc(=O)n2C [tipifarnib] + Cc1cc(SCc2sc(-c3ccc(C(F)(F)F)c(F)c3)nc2C)ccc1OCC(=O)O [GW0742] (first compound 0.05 µM, partner dose 10 µM)",108%
3,"Cc1cn(-c2cc(NC(=O)c3ccc(C)c(Nc4nccc(-c5cccnc5)n4)c3)cc(C(F)(F)F)c2)cn1 [nilotinib] + O=C(Oc1ccc([N+](=O)[O-])cc1)N1CCC(C(O)(c2ccc3c(c2)OCO3)c2ccc3c(c2)OCO3)CC1 [JZL184] (first compound 1 µM, partner dose 5 µM)",122%
4,"O=C(Nc1cccc(Cl)c1)Nc1ncc(CCNc2ncnc3ccsc23)s1 + C/C(O)=C(\C#N)C(=O)Nc1cc(Br)ccc1Br [LFM-A13] (first compound 0.004 µM, partner dose 10 µM)",76.1%
5,"NC(=O)c1ccc(N(C(N)=O)c2c(F)cccc2F)nc1-c1ccc(F)cc1F + O=C(Oc1ccc([N+](=O)[O-])cc1)N1CCC(C(O)(c2ccc3c(c2)OCO3)c2ccc3c(c2)OCO3)CC1 [JZL184] (first compound 2 µM, partner dose 5 µM)",109%
6,"C[C@]1(O)C[C@@H](c2nc(-c3ccc4ccc(-c5ccccc5)nc4c3)c3c(N)nccn32)C1 + O=C(Oc1ccc([N+](=O)[O-])cc1)N1CCC(C(O)(c2ccc3c(c2)OCO3)c2ccc3c(c2)OCO3)CC1 [JZL184] (first compound 2 µM, partner dose 5 µM)",101%
7,"O=C(Nc1cc(C(F)(F)F)cc(C(F)(F)F)c1)c1cc(Cl)ccc1O + O=C(Oc1ccc([N+](=O)[O-])cc1)N1CCC(C(O)(c2ccc3c(c2)OCO3)c2ccc3c(c2)OCO3)CC1 [JZL184] (first compound 0.08 µM, partner dose 5 µM)",102%
8,"OCc1c[nH]c2ccccc12 [Indole-3-carbinol] + O=C(Oc1ccc([N+](=O)[O-])cc1)N1CCC(C(O)(c2ccc3c(c2)OCO3)c2ccc3c(c2)OCO3)CC1 [JZL184] (first compound 4 µM, partner dose 5 µM)",104%
9,"N#CC[C@H](C1CCCC1)n1cc(-c2ncnc3[nH]ccc23)cn1 [ruxolitinib] + O=C(Oc1ccc([N+](=O)[O-])cc1)N1CCC(C(O)(c2ccc3c(c2)OCO3)c2ccc3c(c2)OCO3)CC1 [JZL184] (first compound 5 µM, partner dose 5 µM)",134%
10,"CO[C@@H]1[C@H](N(C)C(=O)c2ccccc2)C[C@H]2O[C@]1(C)n1c3ccccc3c3c4c(c5c6ccccc6n2c5c31)C(=O)NC4 [Midostaurin] + Cc1cc(SCc2sc(-c3ccc(C(F)(F)F)c(F)c3)nc2C)ccc1OCC(=O)O [GW0742] (first compound 0.4 µM, partner dose 10 µM)",78.3%
11,"CS(=O)(=O)c1ccc(C(=O)Nc2ccc(Cl)c(-c3ccccn3)c2)c(Cl)c1 [vismodegib] + C/C(O)=C(\C#N)C(=O)Nc1cc(Br)ccc1Br [LFM-A13] (first compound 5 µM, partner dose 10 µM)",106%
12,"CC1(C)CCC(c2ccc(Cl)cc2)=C(CN2CCN(c3ccc(C(=O)NS(=O)(=O)c4ccc(N[C@H](CCN5CCOCC5)CSc5ccccc5)c(S(=O)(=O)C(F)(F)F)c4)cc3)CC2)C1 + C/C(O)=C(\C#N)C(=O)Nc1cc(Br)ccc1Br [LFM-A13] (first compound 2 µM, partner dose 10 µM)",58.6%
13,"O=C(/C=C/c1cccnc1)NCCCCC1CCN(C(=O)c2ccccc2)CC1 + O=C(Oc1ccc([N+](=O)[O-])cc1)N1CCC(C(O)(c2ccc3c(c2)OCO3)c2ccc3c(c2)OCO3)CC1 [JZL184] (first compound 0.05 µM, partner dose 5 µM)",114%
14,"CNC(=O)c1cc(Oc2ccc(NC(=O)Nc3ccc(Cl)c(C(F)(F)F)c3)cc2)ccn1 [sorafenib] + C/C(O)=C(\C#N)C(=O)Nc1cc(Br)ccc1Br [LFM-A13] (first compound 2 µM, partner dose 10 µM)",100%
15,"Cc1cc(Nc2cc(N3CCN(C)CC3)nc(/C=C/c3ccccc3)n2)n[nH]1 + O=C(Oc1ccc([N+](=O)[O-])cc1)N1CCC(C(O)(c2ccc3c(c2)OCO3)c2ccc3c(c2)OCO3)CC1 [JZL184] (first compound 0.2 µM, partner dose 5 µM)",87.8%
16,"Nc1cccc2c1CN(C1CCC(=O)NC1=O)C2=O (stereo unspecified) [lenalidomide] + Cc1cc(SCc2sc(-c3ccc(C(F)(F)F)c(F)c3)nc2C)ccc1OCC(=O)O [GW0742] (first compound 5 µM, partner dose 10 µM)",119%
17,"CS(=O)(=O)c1ccc(C(=O)Nc2ccc(Cl)c(-c3ccccn3)c2)c(Cl)c1 [vismodegib] + O=C(Oc1ccc([N+](=O)[O-])cc1)N1CCC(C(O)(c2ccc3c(c2)OCO3)c2ccc3c(c2)OCO3)CC1 [JZL184] (first compound 5 µM, partner dose 5 µM)",95%
18,"Cn1cnc2c(F)c(Nc3ccc(Br)cc3Cl)c(C(=O)NOCCO)cc21 [selumetinib] + O=C(Oc1ccc([N+](=O)[O-])cc1)N1CCC(C(O)(c2ccc3c(c2)OCO3)c2ccc3c(c2)OCO3)CC1 [JZL184] (first compound 0.075 µM, partner dose 5 µM)",123%
19,"C/C(O)=C(\C#N)C(=O)Nc1cc(Br)ccc1Br + CCCCCCCCCCCC1=C(O)C(=O)C=C(O)C1=O [Embelin] (first compound 10 µM, partner dose 6 µM)",152%
20,"O=C(Nc1cc(C(F)(F)F)cc(C(F)(F)F)c1)c1cc(Cl)ccc1O + C/C(O)=C(\C#N)C(=O)Nc1cc(Br)ccc1Br [LFM-A13] (first compound 0.08 µM, partner dose 10 µM)",105%
21,"CC1(C)NC(=O)N(c2ccc([N+](=O)[O-])c(C(F)(F)F)c2)C1=O [nilutamide] + Cc1cc(SCc2sc(-c3ccc(C(F)(F)F)c(F)c3)nc2C)ccc1OCC(=O)O [GW0742] (first compound 5 µM, partner dose 10 µM)",75.1%
22,"O=C(O)c1ccc(-c2c[nH]c3ncc(-c4ccccc4)cc23)cc1C1CCCC1 + C/C(O)=C(\C#N)C(=O)Nc1cc(Br)ccc1Br [LFM-A13] (first compound 0.8 µM, partner dose 10 µM)",93.8%
23,"Cc1ccc(NC(=O)c2cccc(N(C)C)c2)cc1NC(=O)c1ccc(O)cc1 + O=C(Oc1ccc([N+](=O)[O-])cc1)N1CCC(C(O)(c2ccc3c(c2)OCO3)c2ccc3c(c2)OCO3)CC1 [JZL184] (first compound 10 µM, partner dose 5 µM)",106%
